From patent publication US9388196B2, “Thiazole derivatives as alpha 7 nAChR modulators” (Lupin Limited, priority 2012, dated 2016)
Some of these results come from one statement about several compounds together. At least one compound was matched to its structure with a doubt left.

Biological target: T1, α7 nAChR (Homo sapiens, UniProt P36544)
T1 construct: human IMR-32 cells with native expression of α7 nAChR; endogenous in cells; host or cells: IMR-32 (human neuroblastoma)
Test: cell-based real-time kinetic FLIPR Ca2+ assay, potentiation of agonist response (fold PAM activity)
Settings: 1 μM test compound; human IMR-32 cells with native α7 nAChR; agonist PNU-282987, 10 μM; fold increase over agonist-alone effect

T1 sequence (P36544 23-502): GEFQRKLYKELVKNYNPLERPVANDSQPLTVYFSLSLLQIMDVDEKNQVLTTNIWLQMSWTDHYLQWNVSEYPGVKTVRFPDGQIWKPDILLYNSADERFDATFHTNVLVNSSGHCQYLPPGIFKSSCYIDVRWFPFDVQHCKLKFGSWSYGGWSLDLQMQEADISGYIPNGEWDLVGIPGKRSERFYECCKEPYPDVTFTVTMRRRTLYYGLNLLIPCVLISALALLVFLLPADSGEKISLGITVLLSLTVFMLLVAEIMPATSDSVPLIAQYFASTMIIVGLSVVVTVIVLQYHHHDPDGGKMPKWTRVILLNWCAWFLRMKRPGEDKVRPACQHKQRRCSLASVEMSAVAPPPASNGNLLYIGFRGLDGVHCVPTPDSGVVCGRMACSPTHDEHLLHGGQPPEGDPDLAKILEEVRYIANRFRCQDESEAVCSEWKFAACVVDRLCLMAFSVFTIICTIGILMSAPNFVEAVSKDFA

| SMILES | Fold activation at 1 μM conc. (Group) |
| --- | --- |
| NS(=O)(=O)c1ccc(-c2sc(C(=O)N3CC(CF)OC(CF)C3)nc2-c2ccc(Cl)cc2)cc1 (racemic) [Compound 17, (trans ±) 4-(2-(2,6-bis(fluoromethyl)morpholine-4-carbonyl)-4-(4-chlorophenyl)thiazol-5-yl)benzenesulfonamide] | A (compounds with activity between 1 to 5 folds are grouped as A) |
| CC1CC(C)CN(C(=O)c2nc(-c3ccc(Cl)cc3)c(-c3ccc(S(N)(=O)=O)cc3)s2)C1 (racemic) [Compound 19, (trans ±) 4-(4-(4-chlorophenyl)-2-(3,5-dimethylpiperidine-1-carbonyl)thiazol-5-yl)benzenesulfonamide] | A (compounds with activity between 1 to 5 folds are grouped as A) |
| COC1C(C)CN(C(=O)c2nc(-c3ccc(Cl)cc3)c(-c3ccc(S(N)(=O)=O)cc3)s2)CC1C (single isomer, unassigned; (+)) [Compound 15, (+) 4-(4-(4-chlorophenyl)-2-(4-methoxy-cis-3,5-dimethylpiperidine-1-carbonyl)thiazol-5-yl)benzenesulfonamide] | A (compounds with activity between 1 to 5 folds are grouped as A) |
| COC1[C@H](C)CN(C(=O)c2nc(-c3ccc(Cl)cc3)c(-c3ccc(S(N)(=O)=O)cc3)s2)C[C@@H]1C (single isomer, unassigned; (-)) [Compound 16, (−) 4-(4-(4-chlorophenyl)-2-(4-methoxy-cis-3,5-dimethylpiperidine-1-carbonyl)thiazol-5-yl)benzenesulfonamide] | A (compounds with activity between 1 to 5 folds are grouped as A) |
| CC1CC(C)CN(c2nc(-c3ccc(Cl)cc3)c(-c3ccc(S(N)(=O)=O)cc3)s2)C1 (stereo not drawn) [Compound 7, (trans +) 4-(4-(4-chlorophenyl)-2-(3,5-dimethylpiperidin-1-yl)thiazol-5-yl)benzenesulfonamide] | C (the compounds with activity above 15 folds are grouped as C) |
| CC1CN(C(=O)c2nc(-c3ccc(Cl)cc3)c(-c3ccc(S(N)(=O)=O)cc3)s2)CC(C)C1F (stereo not drawn) [Compound 24, 4-(4-(4-chlorophenyl)-2-(4-fluoro-cis-3,5-dimethylpiperidine-1-carbonyl)thiazol-5-yl)benzenesulfonamide] | A (compounds with activity between 1 to 5 folds are grouped as A) |
| NS(=O)(=O)c1ccc(-c2sc(N3C4CCC3COC4)nc2-c2ccc(Cl)cc2)cc1 [Compound 56, 4-(2-(3-oxa-8-azabicyclo[3.2.1]octan-8-yl)-4-(4-chlorophenyl)thiazol-5-yl)benzenesulfonamide] | A (compounds with activity between 1 to 5 folds are grouped as A) |
| NS(=O)(=O)c1ccc(-c2sc(N3CC4CC(C3)O4)nc2-c2ccc(Cl)cc2)cc1 [Compound 57, 4-(2-(6-oxa-3-azabicyclo[3.1.1]heptan-3-yl)-4-(4-chlorophenyl)thiazol-5-yl)benzenesulfonamide] | A (compounds with activity between 1 to 5 folds are grouped as A) |
| NS(=O)(=O)c1ccc(-c2sc(N3C4CCCC3CC4)nc2-c2ccc(Cl)cc2)cc1 [Compound 58, 4-(2-(8-azabicyclo[3.2.1]octan-8-yl)-4-(4-chlorophenyl)thiazol-5-yl)benzenesulfonamide] | B (the compounds with activity between 5.1 folds and 15 folds are grouped as B) |
| NS(=O)(=O)c1ccc(-c2sc(C(=O)N3C4CCC3COC4)nc2-c2ccc(Cl)cc2)cc1 [Compound 68, 4-(2-(3-oxa-8-azabicyclo[3.2.1]octane-8-carbonyl)-4-(4-chlorophenyl)thiazol-5-yl)benzenesulfonamide] | A (compounds with activity between 1 to 5 folds are grouped as A) |
| NS(=O)(=O)c1ccc(-c2sc(C(=O)N3CC4CC(C3)O4)nc2-c2ccc(Cl)cc2)cc1 [Compound 69, 4-(2-(6-oxa-3-azabicyclo[3.1.1]heptane-3-carbonyl)-4-(4-chlorophenyl)thiazol-5-yl)benzenesulfonamide] | A (compounds with activity between 1 to 5 folds are grouped as A) |
| NS(=O)(=O)c1ccc(-c2sc(C(=O)N3C4CCCC3CC4)nc2-c2ccc(Cl)cc2)cc1 [Compound 70, 4-(2-(8-azabicyclo[3.2.1]octane-8-carbonyl)-4-(4-chlorophenyl)thiazol-5-yl)benzenesulfonamide] | A (compounds with activity between 1 to 5 folds are grouped as A) |
| NS(=O)(=O)c1ccc(-c2sc(C(=O)N3CC4CC(C4)C3)nc2-c2ccc(Cl)cc2)cc1 [Compound 78, 4-(2-(3-azabicyclo[3.1.1]heptane-3-carbonyl)-4-(4-chlorophenyl)thiazol-5-yl)benzenesulfonamide] | A (compounds with activity between 1 to 5 folds are grouped as A) |
